± gives the standard deviation of the averaged measurements. Restriction of a single-cycle SIVsab GFP reporter by TRIM5α v1-loop variants in CRFK cells. Human variants: read share among cells still uninfected after two challenges over input, higher = gained restriction. Rhesus variants: share among infected cells over input, higher = lost restriction. Reporter dose not given per row. No active / inactive call per row; the paper calls a change when both replicates lie above its controls (mean + 2 SD of stop or wild-type variants, or the top frameshift score). Residues outside the varied loop are taken from Swiss-Prot. The paper reads the human single-substitution scores as noise; they and the rhesus combinations repeat poorly (rank correlation 0.3 to 0.4), indel scores repeat only for the top variants, rhesus substitutions well (0.9).

In the data set the test system is SIVsab (simian immunodeficiency virus of sabaeus monkeys), single-cycle GFP reporter, in CRFK cells. The data set can be described thus: enrichment among infected cells over input (fold); higher = weaker restriction. The settings on record: library: human / rhesus combinations. The method, then:
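Pools of CRFK cells expressing variants of the TRIM5α v1 loop were challenged with the single-cycle reporter, sorted by GFP and sequenced; mean of two replicates.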
With “MASGILLNVKEEVTCPICLELLTEPLSLHCGHSFCQACITANHKKSMLYKEGERSCPVCRISYQPENIQPNRHVANIVEKLREVKLSPEEGQKVDHCARHGEKLLLFCQEDSKVICWLCERSQEHRGHHTFLMEEVAQEYHVKLQTALEMLRQKQQEAEKLEADIREEKASWKIQIDYDKTNVSADFEQLREILDWEESNELQNLEKEEEDILKSLTKSETEMVQQTQYMRELISELEHRLQGSMMDLLQGVDGIIKRIENMTLKKPKTFHKNQRRVFRAPDLKGMLDMFRELTDARRYWVDVTLAPNNISHAVIAEDKRQVSSRNPQIMYGARGTRYTFQTFTNFNYCTGVLGSQSITSGKHYWEVDVSKKSAWILGVCAGFQSDAMYNIEQNENYQPKYGYWVIGLQEGVKYSVFQDGSSHTPFAPFIVPLSVIICPDRVGVFVDYEACTVSFFNITNHGFLIYKFSQCSFSKPVFPYLNPRKCTVPMTLCSPSS [rhesus TRIM5α, 332-344 = GARGTRYTFQTFT]”, the enrichment came to 1.09 ± 0.32.

For “MASGILLNVKEEVTCPICLELLTEPLSLHCGHSFCQACITANHKKSMLYKEGERSCPVCRISYQPENIQPNRHVANIVEKLREVKLSPEEGQKVDHCARHGEKLLLFCQEDSKVICWLCERSQEHRGHHTFLMEEVAQEYHVKLQTALEMLRQKQQEAEKLEADIREEKASWKIQIDYDKTNVSADFEQLREILDWEESNELQNLEKEEEDILKSLTKSETEMVQQTQYMRELISELEHRLQGSMMDLLQGVDGIIKRIENMTLKKPKTFHKNQRRVFRAPDLKGMLDMFRELTDARRYWVDVTLAPNNISHAVIAEDKRQVSSRNPQIMYGARGTRYTFQTFVNFNYCTGVLGSQSITSGKHYWEVDVSKKSAWILGVCAGFQSDAMYNIEQNENYQPKYGYWVIGLQEGVKYSVFQDGSSHTPFAPFIVPLSVIICPDRVGVFVDYEACTVSFFNITNHGFLIYKFSQCSFSKPVFPYLNPRKCTVPMTLCSPSS [rhesus TRIM5α, 332-344 = GARGTRYTFQTFV]”, the enrichment came out at 1.26 ± 0.41.

For “MASGILLNVKEEVTCPICLELLTEPLSLHCGHSFCQACITANHKKSMLYKEGERSCPVCRISYQPENIQPNRHVANIVEKLREVKLSPEEGQKVDHCARHGEKLLLFCQEDSKVICWLCERSQEHRGHHTFLMEEVAQEYHVKLQTALEMLRQKQQEAEKLEADIREEKASWKIQIDYDKTNVSADFEQLREILDWEESNELQNLEKEEEDILKSLTKSETEMVQQTQYMRELISELEHRLQGSMMDLLQGVDGIIKRIENMTLKKPKTFHKNQRRVFRAPDLKGMLDMFRELTDARRYWVDVTLAPNNISHAVIAEDKRQVSSRNPQIMYGARGTRYTFQTLTNFNYCTGVLGSQSITSGKHYWEVDVSKKSAWILGVCAGFQSDAMYNIEQNENYQPKYGYWVIGLQEGVKYSVFQDGSSHTPFAPFIVPLSVIICPDRVGVFVDYEACTVSFFNITNHGFLIYKFSQCSFSKPVFPYLNPRKCTVPMTLCSPSS [rhesus TRIM5α, 332-344 = GARGTRYTFQTLT]”, the enrichment turned out to be 1.03 ± 0.18.

Take “MASGILLNVKEEVTCPICLELLTEPLSLHCGHSFCQACITANHKKSMLYKEGERSCPVCRISYQPENIQPNRHVANIVEKLREVKLSPEEGQKVDHCARHGEKLLLFCQEDSKVICWLCERSQEHRGHHTFLMEEVAQEYHVKLQTALEMLRQKQQEAEKLEADIREEKASWKIQIDYDKTNVSADFEQLREILDWEESNELQNLEKEEEDILKSLTKSETEMVQQTQYMRELISELEHRLQGSMMDLLQGVDGIIKRIENMTLKKPKTFHKNQRRVFRAPDLKGMLDMFRELTDARRYWVDVTLAPNNISHAVIAEDKRQVSSRNPQIMYGARGTRYTFQTLVNFNYCTGVLGSQSITSGKHYWEVDVSKKSAWILGVCAGFQSDAMYNIEQNENYQPKYGYWVIGLQEGVKYSVFQDGSSHTPFAPFIVPLSVIICPDRVGVFVDYEACTVSFFNITNHGFLIYKFSQCSFSKPVFPYLNPRKCTVPMTLCSPSS [rhesus TRIM5α, 332-344 = GARGTRYTFQTLV]”: the enrichment was found to be 0.999 ± 0.21.

“MASGILLNVKEEVTCPICLELLTEPLSLHCGHSFCQACITANHKKSMLYKEGERSCPVCRISYQPENIQPNRHVANIVEKLREVKLSPEEGQKVDHCARHGEKLLLFCQEDSKVICWLCERSQEHRGHHTFLMEEVAQEYHVKLQTALEMLRQKQQEAEKLEADIREEKASWKIQIDYDKTNVSADFEQLREILDWEESNELQNLEKEEEDILKSLTKSETEMVQQTQYMRELISELEHRLQGSMMDLLQGVDGIIKRIENMTLKKPKTFHKNQRRVFRAPDLKGMLDMFRELTDARRYWVDVTLAPNNISHAVIAEDKRQVSSRNPQIMYQAPGTLFPSFTNFNYCTGVLGSQSITSGKHYWEVDVSKKSAWILGVCAGFQSDAMYNIEQNENYQPKYGYWVIGLQEGVKYSVFQDGSSHTPFAPFIVPLSVIICPDRVGVFVDYEACTVSFFNITNHGFLIYKFSQCSFSKPVFPYLNPRKCTVPMTLCSPSS [rhesus TRIM5α, 332-344 = QAPGTLFPSFT]”: the enrichment was found to be 0.376 ± 0.35.

For the sequence “MASGILLNVKEEVTCPICLELLTEPLSLHCGHSFCQACITANHKKSMLYKEGERSCPVCRISYQPENIQPNRHVANIVEKLREVKLSPEEGQKVDHCARHGEKLLLFCQEDSKVICWLCERSQEHRGHHTFLMEEVAQEYHVKLQTALEMLRQKQQEAEKLEADIREEKASWKIQIDYDKTNVSADFEQLREILDWEESNELQNLEKEEEDILKSLTKSETEMVQQTQYMRELISELEHRLQGSMMDLLQGVDGIIKRIENMTLKKPKTFHKNQRRVFRAPDLKGMLDMFRELTDARRYWVDVTLAPNNISHAVIAEDKRQVSSRNPQIMYQAPGTLFQSLTNFNYCTGVLGSQSITSGKHYWEVDVSKKSAWILGVCAGFQSDAMYNIEQNENYQPKYGYWVIGLQEGVKYSVFQDGSSHTPFAPFIVPLSVIICPDRVGVFVDYEACTVSFFNITNHGFLIYKFSQCSFSKPVFPYLNPRKCTVPMTLCSPSS [rhesus TRIM5α, 332-344 = QAPGTLFQSLT]”, the enrichment came to 0.635 ± 0.058.

In the case of “MASGILLNVKEEVTCPICLELLTEPLSLHCGHSFCQACITANHKKSMLYKEGERSCPVCRISYQPENIQPNRHVANIVEKLREVKLSPEEGQKVDHCARHGEKLLLFCQEDSKVICWLCERSQEHRGHHTFLMEEVAQEYHVKLQTALEMLRQKQQEAEKLEADIREEKASWKIQIDYDKTNVSADFEQLREILDWEESNELQNLEKEEEDILKSLTKSETEMVQQTQYMRELISELEHRLQGSMMDLLQGVDGIIKRIENMTLKKPKTFHKNQRRVFRAPDLKGMLDMFRELTDARRYWVDVTLAPNNISHAVIAEDKRQVSSRNPQIMYQAPGTLFQSLVNFNYCTGVLGSQSITSGKHYWEVDVSKKSAWILGVCAGFQSDAMYNIEQNENYQPKYGYWVIGLQEGVKYSVFQDGSSHTPFAPFIVPLSVIICPDRVGVFVDYEACTVSFFNITNHGFLIYKFSQCSFSKPVFPYLNPRKCTVPMTLCSPSS [rhesus TRIM5α, 332-344 = QAPGTLFQSLV]”, the enrichment stood at 7.91 ± 9.2.

“MASGILLNVKEEVTCPICLELLTEPLSLHCGHSFCQACITANHKKSMLYKEGERSCPVCRISYQPENIQPNRHVANIVEKLREVKLSPEEGQKVDHCARHGEKLLLFCQEDSKVICWLCERSQEHRGHHTFLMEEVAQEYHVKLQTALEMLRQKQQEAEKLEADIREEKASWKIQIDYDKTNVSADFEQLREILDWEESNELQNLEKEEEDILKSLTKSETEMVQQTQYMRELISELEHRLQGSMMDLLQGVDGIIKRIENMTLKKPKTFHKNQRRVFRAPDLKGMLDMFRELTDARRYWVDVTLAPNNISHAVIAEDKRQVSSRNPQIMYQAPGTLFTFPTFVNFNYCTGVLGSQSITSGKHYWEVDVSKKSAWILGVCAGFQSDAMYNIEQNENYQPKYGYWVIGLQEGVKYSVFQDGSSHTPFAPFIVPLSVIICPDRVGVFVDYEACTVSFFNITNHGFLIYKFSQCSFSKPVFPYLNPRKCTVPMTLCSPSS [rhesus TRIM5α, 332-344 = QAPGTLFTFPTFV]”: the enrichment turned out to be 0.432 ± 0.51.

On to “MASGILLNVKEEVTCPICLELLTEPLSLHCGHSFCQACITANHKKSMLYKEGERSCPVCRISYQPENIQPNRHVANIVEKLREVKLSPEEGQKVDHCARHGEKLLLFCQEDSKVICWLCERSQEHRGHHTFLMEEVAQEYHVKLQTALEMLRQKQQEAEKLEADIREEKASWKIQIDYDKTNVSADFEQLREILDWEESNELQNLEKEEEDILKSLTKSETEMVQQTQYMRELISELEHRLQGSMMDLLQGVDGIIKRIENMTLKKPKTFHKNQRRVFRAPDLKGMLDMFRELTDARRYWVDVTLAPNNISHAVIAEDKRQVSSRNPQIMYQAPGTLFTFQSFVNFNYCTGVLGSQSITSGKHYWEVDVSKKSAWILGVCAGFQSDAMYNIEQNENYQPKYGYWVIGLQEGVKYSVFQDGSSHTPFAPFIVPLSVIICPDRVGVFVDYEACTVSFFNITNHGFLIYKFSQCSFSKPVFPYLNPRKCTVPMTLCSPSS [rhesus TRIM5α, 332-344 = QAPGTLFTFQSFV]”, for which the enrichment was 0.718 ± 0.6.

In the case of “MASGILLNVKEEVTCPICLELLTEPLSLHCGHSFCQACITANHKKSMLYKEGERSCPVCRISYQPENIQPNRHVANIVEKLREVKLSPEEGQKVDHCARHGEKLLLFCQEDSKVICWLCERSQEHRGHHTFLMEEVAQEYHVKLQTALEMLRQKQQEAEKLEADIREEKASWKIQIDYDKTNVSADFEQLREILDWEESNELQNLEKEEEDILKSLTKSETEMVQQTQYMRELISELEHRLQGSMMDLLQGVDGIIKRIENMTLKKPKTFHKNQRRVFRAPDLKGMLDMFRELTDARRYWVDVTLAPNNISHAVIAEDKRQVSSRNPQIMYQAPGTLFTFQTFTNFNYCTGVLGSQSITSGKHYWEVDVSKKSAWILGVCAGFQSDAMYNIEQNENYQPKYGYWVIGLQEGVKYSVFQDGSSHTPFAPFIVPLSVIICPDRVGVFVDYEACTVSFFNITNHGFLIYKFSQCSFSKPVFPYLNPRKCTVPMTLCSPSS [rhesus TRIM5α, 332-344 = QAPGTLFTFQTFT]”, the enrichment was found to be 1.27 ± 0.47.

Take “MASGILLNVKEEVTCPICLELLTEPLSLHCGHSFCQACITANHKKSMLYKEGERSCPVCRISYQPENIQPNRHVANIVEKLREVKLSPEEGQKVDHCARHGEKLLLFCQEDSKVICWLCERSQEHRGHHTFLMEEVAQEYHVKLQTALEMLRQKQQEAEKLEADIREEKASWKIQIDYDKTNVSADFEQLREILDWEESNELQNLEKEEEDILKSLTKSETEMVQQTQYMRELISELEHRLQGSMMDLLQGVDGIIKRIENMTLKKPKTFHKNQRRVFRAPDLKGMLDMFRELTDARRYWVDVTLAPNNISHAVIAEDKRQVSSRNPQIMYQAPGTLFTFQTFVNFNYCTGVLGSQSITSGKHYWEVDVSKKSAWILGVCAGFQSDAMYNIEQNENYQPKYGYWVIGLQEGVKYSVFQDGSSHTPFAPFIVPLSVIICPDRVGVFVDYEACTVSFFNITNHGFLIYKFSQCSFSKPVFPYLNPRKCTVPMTLCSPSS [rhesus TRIM5α, 332-344 = QAPGTLFTFQTFV]”: the enrichment turned out to be 1.25 ± 0.086.

Regarding “MASGILLNVKEEVTCPICLELLTEPLSLHCGHSFCQACITANHKKSMLYKEGERSCPVCRISYQPENIQPNRHVANIVEKLREVKLSPEEGQKVDHCARHGEKLLLFCQEDSKVICWLCERSQEHRGHHTFLMEEVAQEYHVKLQTALEMLRQKQQEAEKLEADIREEKASWKIQIDYDKTNVSADFEQLREILDWEESNELQNLEKEEEDILKSLTKSETEMVQQTQYMRELISELEHRLQGSMMDLLQGVDGIIKRIENMTLKKPKTFHKNQRRVFRAPDLKGMLDMFRELTDARRYWVDVTLAPNNISHAVIAEDKRQVSSRNPQIMYQAPGTLFTFQTLVNFNYCTGVLGSQSITSGKHYWEVDVSKKSAWILGVCAGFQSDAMYNIEQNENYQPKYGYWVIGLQEGVKYSVFQDGSSHTPFAPFIVPLSVIICPDRVGVFVDYEACTVSFFNITNHGFLIYKFSQCSFSKPVFPYLNPRKCTVPMTLCSPSS [rhesus TRIM5α, 332-344 = QAPGTLFTFQTLV]”, the enrichment was determined as 1.16 ± 0.65.

The record behind these values is the supplement of paper PMC12230231.
